From publication PMC4336329 (PLoS ONE, 2015) come the findings set out here.

Hit rate of the full screen: of about 310,000 compounds, about 14,000 (4.5%) showed an effect of 50% or more. Effects have a minus sign here. The list shows a part of the results.
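Also: peak tail current of the secondary pulse compared with the same well before compound.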

This test deals with human ether-à-go-go-related gene (hERG) potassium channel (human, UniProt Q12809). The test can be described thus: primary screen, population patch clamp on CHO cells stably expressing hERG.
Chain of human ether-à-go-go-related gene (hERG) potassium channel (Q12809 whole entry, looked up): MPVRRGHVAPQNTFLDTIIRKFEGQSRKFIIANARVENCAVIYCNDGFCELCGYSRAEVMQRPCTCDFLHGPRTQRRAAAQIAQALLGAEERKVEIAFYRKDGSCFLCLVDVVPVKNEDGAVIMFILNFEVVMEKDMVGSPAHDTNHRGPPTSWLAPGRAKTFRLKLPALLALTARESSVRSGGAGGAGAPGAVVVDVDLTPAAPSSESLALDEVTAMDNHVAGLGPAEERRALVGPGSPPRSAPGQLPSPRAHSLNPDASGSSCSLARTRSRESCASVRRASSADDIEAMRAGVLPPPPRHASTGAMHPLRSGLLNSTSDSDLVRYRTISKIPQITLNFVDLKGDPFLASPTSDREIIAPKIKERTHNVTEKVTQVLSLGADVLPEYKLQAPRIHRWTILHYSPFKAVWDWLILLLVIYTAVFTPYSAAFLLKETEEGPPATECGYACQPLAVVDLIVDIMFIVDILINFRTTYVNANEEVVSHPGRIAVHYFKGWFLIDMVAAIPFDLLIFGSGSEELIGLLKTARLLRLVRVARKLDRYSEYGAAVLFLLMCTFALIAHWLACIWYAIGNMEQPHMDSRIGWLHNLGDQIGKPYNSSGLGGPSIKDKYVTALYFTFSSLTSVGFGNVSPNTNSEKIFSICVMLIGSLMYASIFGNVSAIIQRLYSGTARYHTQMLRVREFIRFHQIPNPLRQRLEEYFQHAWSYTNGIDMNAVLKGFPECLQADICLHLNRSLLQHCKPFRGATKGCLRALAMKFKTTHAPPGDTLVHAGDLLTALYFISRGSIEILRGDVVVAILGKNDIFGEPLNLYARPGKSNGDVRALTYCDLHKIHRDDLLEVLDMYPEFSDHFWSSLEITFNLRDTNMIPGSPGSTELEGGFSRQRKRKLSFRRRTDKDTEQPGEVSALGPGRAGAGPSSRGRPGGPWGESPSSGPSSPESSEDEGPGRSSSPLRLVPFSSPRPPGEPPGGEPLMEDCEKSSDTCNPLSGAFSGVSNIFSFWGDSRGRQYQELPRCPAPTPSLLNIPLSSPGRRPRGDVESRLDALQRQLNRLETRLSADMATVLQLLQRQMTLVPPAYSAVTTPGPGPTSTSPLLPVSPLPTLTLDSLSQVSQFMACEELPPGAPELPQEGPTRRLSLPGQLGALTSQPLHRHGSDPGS
For the molecule `Cc1ccccc1NC(=O)c1cccc(N2C(=O)C3C4CC(C(Br)C4Br)C3C2=O)c1` (centres unmarked), the “hERG current change (%, negative = inhibition) at 10uM” value was 14.4%.
With `O=C(Cc1ccc(Br)cc1)NCCCn1ccnc1` the figure was -5.49%.
For `COc1ccc(/C(C)=N/NC(=O)CNC(=O)c2cccnc2)cc1`, the “hERG current change (%, negative = inhibition) at 10uM” value turned out to be 12.5%.
In the case of `CCSc1nnc(NC(=O)CSc2nc3c(c(=O)n2C)SC(C)C3)s1` (centres unmarked) it was -11.5%; in that of `O=C(COC(=O)c1ccc(Br)cc1)NC(=O)NCc1ccccc1`, -7.46%.
With `O=C(c1ccco1)N(CC1CCCO1)c1nc(-c2ccccc2)cs1` (centres unmarked) the figure was 2.22%; with `COc1cc(CNCCc2ccccc2)ccc1OCC(=O)NC(C)(C)C.Cl`, -5.07%; with `Cc1noc(C(=O)Nc2c(C)n(C)n(-c3ccccc3)c2=O)c1Cl`, 2.02%.
Take `COc1ccccc1NS(=O)(=O)c1cc(NC(=O)C2CC2)ccc1N1CCOCC1`: the “hERG current change (%, negative = inhibition) at 10uM” value was 45.4%.
In the case of `CCN(CC)CCN(C(=O)Cn1nnc(-c2ccc(C)o2)n1)C(C(=O)NC(C)(C)C)c1cccs1` (centres unmarked) it was -41.6%; in that of `Cc1cc(C)cc(NC(=O)CSc2n[nH]c(-c3cccnc3)n2)c1`, -9.91%; in that of `O=C(O)CCCCCNc1nc2ncn(Cc3ccccc3)c2c(=O)[nH]1`, 3.46%.
With `Cc1ccc(Cn2nc(C(=O)Nc3ccc(Br)cc3)cc2C)cc1`, the “hERG current change (%, negative = inhibition) at 10uM” value turned out to be 13.2%.
Turning to `CCOc1c(C(N)=O)c(-c2ccccc2)c2c(=O)[nH]c3ccccc3n12`, the “hERG current change (%, negative = inhibition) at 10uM” value was 19.5%.
In the case of `CCN(CC)S(=O)(=O)c1ccc(-c2nnco2)cc1` it was -3.59%; in that of `COc1ccc(CCN(C)C(=O)CN2C(=O)c3ccccc3S2(=O)=O)cc1OC`, 4.1%.
Consider `COc1ccc(OCC(=O)Nc2cccc(NC(=O)c3ccco3)c2)cc1`, for which the “hERG current change (%, negative = inhibition) at 10uM” value was -11.3%.
In the case of `COc1ccccc1C1=NNC(=Nc2cccc(S(=O)(=O)N(C)C)c2)SC1` it was -7.3%; in that of `Cc1ccc(NS(=O)(=O)c2ccc(NC(=O)c3ccccc3C(=O)O)cc2)c(C)c1`, 10.8%.
Consider `CC(C)NC(=S)NC(=O)/C=C/c1cccc2ccccc12`, for which the “hERG current change (%, negative = inhibition) at 10uM” value was determined as 14.1%.
With `Cc1cnc2ncc3sccc3c2c1` the figure was 13.1%; with `O=C(c1ccc(-c2ccc([N+](=O)[O-])cc2)o1)N1CCCC(C(F)(F)F)C1` (centres unmarked), -17%; with `Cc1cc(C)cc(NC(=S)N2CCN(S(C)(=O)=O)CC2)c1`, 4.55%.
For `CCCn1c(SCC(=O)NC2CC2)nnc1-c1cccs1`, the “hERG current change (%, negative = inhibition) at 10uM” value is -0.0347%.
In the case of `Cc1cc(NC(=O)COC(=O)C2CC(=O)N(c3ccc(Br)cc3)C2)no1` (centres unmarked) it was -14.6%.
For `O=C(C1CCN(S(=O)(=O)c2ccc(Br)s2)CC1)N1CCc2ccccc21`, the “hERG current change (%, negative = inhibition) at 10uM” value was -46.8%.
Take `Cc1ccc(-n2ncc(C(=O)NCC3CCN(C4CCCC4)C3)c2C2CCN(C(=O)OC(C)(C)C)CC2)cc1C` (centres unmarked): the “hERG current change (%, negative = inhibition) at 10uM” value was found to be 6.57%.
`COc1ccccc1N1CCN(S(=O)(=O)c2cc(C)sc2C)CC1`: the “hERG current change (%, negative = inhibition) at 10uM” value is on record as -6.36%.
`Cc1ccc(S(=O)(=O)N(CC(=O)Nc2ccccc2C(=O)O)c2ccccc2)cc1`: the “hERG current change (%, negative = inhibition) at 10uM” value is on record as 23.9%.
With `COC(=O)CC1C(=O)NCCN1C(=O)c1ccc([N+](=O)[O-])cc1` (centres unmarked) the figure was 9.64%; with `Cc1ccc2nc3c(cc2c1)CC1(C(=O)N(C)C(=O)N(C)C1=O)C1CCCCN31` (centres unmarked), -13.5%; with `COc1cccc(NC(=O)COC(=O)CNC(=O)C2CCCCC2)c1`, 9.89%.
Turning to `Cc1noc(C)c1CSCC(=O)NC1=NCCS1`, the “hERG current change (%, negative = inhibition) at 10uM” value came out at 6.86%.
In the case of `O=C(N/N=C/c1ccco1)c1cc(-c2ccc(Br)s2)[nH]n1` it was 4.07%; in that of `O=C(CN1CCN(C(=O)C2COc3ccccc3O2)CC1)Nc1ccccc1` (centres unmarked), -66.2%.
With `CC1(OC(=O)CCc2ccccc2)C(=O)C=C2C=C(c3ccc(C#N)cc3)N(C3CC3)C=C2C1=O` (centres unmarked) the figure was -51.7%.
As to `CC(C)Nc1nnc(SCC(=O)Nc2ccc(F)cc2)s1`, the “hERG current change (%, negative = inhibition) at 10uM” value was -0.0817%.
With `Nc1nonc1-n1nnc(C(=O)N/N=C/c2cccs2)c1CSc1ccccc1` the figure was 22.8%; with `O=C1CCCN1CCCNS(=O)(=O)c1cccc(F)c1`, 25.9%.
As to `C=Cc1ccc(Cn2nc(-c3ccc(C)cc3)ccc2=O)cc1`, the “hERG current change (%, negative = inhibition) at 10uM” value is reported as 16.3%.
Take `O=C(CN1C(=O)C2CC=CCC2C1=O)Nc1nnc(C2CC2)s1` (centres unmarked): the “hERG current change (%, negative = inhibition) at 10uM” value came to 6.01%.
With `CCSc1ncc(Cl)c(C(=O)Nc2ccc(S(=O)(=O)Nc3ncccn3)cc2)n1` the figure was 2.44%; with `C/C(=N\NC(=O)c1ccc(N2CCCC2=O)cc1)c1ccccc1`, 10.5%; with `C[C@@H]1NC(=O)c2cc([N+](=O)[O-])cc(I)c2NCC[C@@H](C(N)=O)NC(=O)[C@H](CC(N)=O)NC1=O`, 11.2%.
With `Cc1cc(O)c(C(=O)/C=C/c2ccc(Cl)cc2)c(=O)o1`, the “hERG current change (%, negative = inhibition) at 10uM” value came out at 23.2%.
`O=C(NCCN1CCOCC1)C1CC(=O)N(c2ccc(F)cc2)C1` (centres unmarked): the “hERG current change (%, negative = inhibition) at 10uM” value is -8.03%.
On to `CC(=O)OC(C(=O)NCc1ccc(F)cc1)c1ccccn1` (centres unmarked), for which the “hERG current change (%, negative = inhibition) at 10uM” value came out at 4.52%.
Regarding `CN(Cc1ccccc1)C(=O)CN(c1ccc(F)cc1)S(=O)(=O)c1ccc2c(c1)OCCO2`, the “hERG current change (%, negative = inhibition) at 10uM” value is -18.6%.
In the case of `O=C(NCCc1nc2ccccc2[nH]1)c1ccc(Br)o1`, the “hERG current change (%, negative = inhibition) at 10uM” value is 3.87%.
As to `FC(F)(F)c1ccccc1/C=N/n1c(COc2ccccc2)n[nH]c1=S`, the “hERG current change (%, negative = inhibition) at 10uM” value was 20.9%.
On to `CCOc1ccc(N(CC(=O)NCc2ccc(F)cc2)C(=O)c2snc(C(N)=O)c2N)cc1`, for which the “hERG current change (%, negative = inhibition) at 10uM” value came out at 6.64%.
With `CCN1CCN(c2c(Cl)cccc2NC(=O)c2ccc(Br)o2)CC1`, the “hERG current change (%, negative = inhibition) at 10uM” value is on record as -73.6%.
In the case of `Cn1nc(-c2ccccc2)cc1NC(=O)c1cccs1` it was 5.18%; in that of `CC(=O)Nc1ccccc1OCc1nnc(-c2ccccc2Cl)o1`, 11.5%.
Turning to `O=C(NC(=S)Nc1ccccc1N1CCOCC1)c1cccs1`, the “hERG current change (%, negative = inhibition) at 10uM” value was -1.16%.
In the case of `CC(C)n1c(-c2ccccc2F)n[nH]c1=S` it was 10.6%.
